Sequences and labels used below:
B1: TPR 5TU (parent)
chain: GGAUCUUCUCGAUCUAACAAAAAAGACAAAUCUGCCACAAAGCUUGAGAGCAUCUUCGGAUGCAGAGGCGGCAGCCUUCGGUGGCGCGAUAGCGCCAACGUUCUCAACUAUGACACGCAAAACGCGUGCUCCGUUGAAUGGAGUUUAUCAUG

Variants at the floor of the assay are shown more often than the library holds them.

Variants of B1 are the subject of this data set. The experiment in a line: polymerase ribozyme fitness, log enrichment relative to wild type (log ratio); higher = more active; in vitro selection for triplet polymerase activity. An outline of the steps:
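One round of in vitro selection, in triplicate, was applied to PCR-built, transcribed mutant libraries of each subunit of a heterodimeric triplet polymerase ribozyme. The steps were annealing with a biotinylated primer, partner subunit and triplets, incubation frozen at −7 °C, gel excision of extended constructs, streptavidin-bead capture and RT-PCR. Fitness is the logarithm, base 2, of genotype enrichment over wild-type enrichment from inverse-variance-weighted replicate averages of Illumina-sequenced inputs and outputs, keeping genotypes with ≥10 input reads and ≥1 read per output.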
As for A12U C87A, the “polymerase ribozyme fitness (log ratio)” value is -4.15.

For the variant A12C A23C G58A G68C, the “polymerase ribozyme fitness (log ratio)” value was at most -4.2. The result for U13C G58U G94U C95U A142G U144G reads -4.05. For U13A A19U A22U A26U G70U C96A U111A, the “polymerase ribozyme fitness (log ratio)” value is at most -4.2.

Take G11U U33G A66C G84A G128U A137C U145A: the “polymerase ribozyme fitness (log ratio)” value was at most -4.2. A12U C43U C95A: the “polymerase ribozyme fitness (log ratio)” value was at most -4.2. For U13C A19G U45G C93A A106U, the “polymerase ribozyme fitness (log ratio)” value is -2.34. G11U C36A C96A: the “polymerase ribozyme fitness (log ratio)” value is at most -4.2. The result for U13C A29U A52C G86C A107C U109A reads at most -4.2. As to U13A A19U A37C U45A A49C C51U C76U G94A G133U U134A G140U U148A, the “polymerase ribozyme fitness (log ratio)” value is at most -4.2. For the variant A12U A17G C87G U135C, the “polymerase ribozyme fitness (log ratio)” value is at most -4.2. Turning to U13G A20C A37G G62A G65C C93G, the “polymerase ribozyme fitness (log ratio)” value is at most -4.2. A12G U56G C85G: the “polymerase ribozyme fitness (log ratio)” value is -2.2.

For the variant A12U A37G C69G A122C G126A A150G, the “polymerase ribozyme fitness (log ratio)” value is at most -4.2. U13A U56G A64U G88U U127G G133U: the “polymerase ribozyme fitness (log ratio)” value was at most -4.2.

For U13C A49C C57G G68C G83C G84A U101G A115U, the “polymerase ribozyme fitness (log ratio)” value was at most -4.2. The result for A12U A28U U44G C93A U102A reads at most -4.2; that for A12C A19C A122G U146C, -1.62. In the case of G11U A52U, the “polymerase ribozyme fitness (log ratio)” value was -2.33. Turning to U13A A28G C32U A47G C54U C85A G88U C108U G143C, the “polymerase ribozyme fitness (log ratio)” value is at most -4.2.

As for A12C A40G C54A A115G U139C U144A, the “polymerase ribozyme fitness (log ratio)” value was at most -4.2.

With U13G A26C G84U A97U C118U, the “polymerase ribozyme fitness (log ratio)” value is at most -4.2. Consider U13A A52G U56A C75U U78A C87U C93A G136C C149A, for which the “polymerase ribozyme fitness (log ratio)” value is at most -4.2. Turning to A12C U15G A29C G50U C85U G92A C95U G143A U144A, the “polymerase ribozyme fitness (log ratio)” value is at most -4.2. For the variant A12G A24U G50A C69U C79U C93G G100C C103G G141A, the “polymerase ribozyme fitness (log ratio)” value is at most -4.2.

Take U13A A28U U82G C99G C103A C116G: the “polymerase ribozyme fitness (log ratio)” value was at most -4.2. The result for U13G A16C A49C C95A C96G G117C reads at most -4.2. Regarding A12C A21U U53A G59C A60G G84A, the “polymerase ribozyme fitness (log ratio)” value is -0.862.

A12G U13G C38A A41U C95A U102C A137G: the “polymerase ribozyme fitness (log ratio)” value is at most -4.2.

U13C A21C A23C G92U A142G A147U: the “polymerase ribozyme fitness (log ratio)” value was at most -4.2. With A12G C14G A17G C75U A91G C105U A106G A121U A137U, the “polymerase ribozyme fitness (log ratio)” value was at most -4.2.

As to A12G U15C A37G U44A U56A C69U C87U, the “polymerase ribozyme fitness (log ratio)” value is at most -4.2. Take A12U A60G U82G A91C: the “polymerase ribozyme fitness (log ratio)” value is at most -4.2. Consider A12U A28C C57U G68A G92C G126U, for which the “polymerase ribozyme fitness (log ratio)” value was at most -4.2.

For U13C C27A A49C U56A A97U, the “polymerase ribozyme fitness (log ratio)” value was at most -4.2. For A12U G48U A49C C69G G86A C93U U139G A150G the value was at most -4.2; for A12U A24C C63G C85U C87A G94C A107G G126A A137G G141U, at most -4.2. In the case of U13A A19G C35G C57A C79G A91C A121G, the “polymerase ribozyme fitness (log ratio)” value was at most -4.2. For A12G A29C C54U G59A C75A G83U C85G U90C A91U A142C the value was at most -4.2; for U13A A91G C114U A120G, -4.09.

Regarding U13G A22C G68C G88A, the “polymerase ribozyme fitness (log ratio)” value was at most -4.2. For the variant U13C A16U C36G C118A G140C G143A, the “polymerase ribozyme fitness (log ratio)” value was at most -4.2. In the case of U13A A23U U31G C35U G92U A106U C114U U148C, the “polymerase ribozyme fitness (log ratio)” value is at most -4.2. The result for A12U G48U G88A C95U U134G U151G reads at most -4.2.

Take A12G A23C A47C A60G C93U: the “polymerase ribozyme fitness (log ratio)” value is at most -4.2. On to A12G C51G A52C C63G, for which the “polymerase ribozyme fitness (log ratio)” value is at most -4.2.

On to U13A U55A G58U A60G C87G A115C U151G, for which the “polymerase ribozyme fitness (log ratio)” value is at most -4.2. On to U13C C14U C54A G92A, for which the “polymerase ribozyme fitness (log ratio)” value was at most -4.2. Regarding U13G A20U C38U C87G G92U A110U, the “polymerase ribozyme fitness (log ratio)” value was at most -4.2. As to A12G A41G C79G C85G C103U A120C U134C A150G, the “polymerase ribozyme fitness (log ratio)” value was at most -4.2.

In the case of A12G C87G G88U C96U C105A C108G C116U, the “polymerase ribozyme fitness (log ratio)” value is at most -4.2.

As for G11U U90A A119U G133C, the “polymerase ribozyme fitness (log ratio)” value was at most -4.2. Take A12C A30G: the “polymerase ribozyme fitness (log ratio)” value was -3.77. Consider U13C U44A U56A C79U C93G C95U A115C G141U, for which the “polymerase ribozyme fitness (log ratio)” value was at most -4.2.

Consider A12C A66G A91U, for which the “polymerase ribozyme fitness (log ratio)” value was at most -4.2.

Consider A12G A29U C85U A115C G117U U134G, for which the “polymerase ribozyme fitness (log ratio)” value was at most -4.2.

Regarding A12U A19C U44G U148C, the “polymerase ribozyme fitness (log ratio)” value was at most -4.2. For A12U A20U A21C C87G A142G the value was at most -4.2; for A12G U33G A40G A52U U53G G86A U134A, at most -4.2.

Turning to A12C A16U U61A C125A, the “polymerase ribozyme fitness (log ratio)” value was -3.45.

Regarding A12U A17U A28C C43G C103G, the “polymerase ribozyme fitness (log ratio)” value was at most -4.2. Consider U13C A52G U102C C118G, for which the “polymerase ribozyme fitness (log ratio)” value is -3.18. As for A12U G42A C85U C99G, the “polymerase ribozyme fitness (log ratio)” value is at most -4.2.

U13G A22U C93G A107G C108G: the “polymerase ribozyme fitness (log ratio)” value was at most -4.2. For the variant U13A A73U A91G A121U A122G G141C U151A, the “polymerase ribozyme fitness (log ratio)” value is at most -4.2. A12C G48U U82C A89U G94U C108G G112U A122U: the “polymerase ribozyme fitness (log ratio)” value was at most -4.2. As to A12G A19C A20G A22C A28G A30G C57A G59A G84A U101G A115U G136U, the “polymerase ribozyme fitness (log ratio)” value is at most -4.2.

Consider U13A A30C A52G C85A A110G A115C U148C, for which the “polymerase ribozyme fitness (log ratio)” value was at most -4.2.

A12U C35A U44A G92C U127A C129G G143A U151C: the “polymerase ribozyme fitness (log ratio)” value is at most -4.2. On to A12G U55A G62A C105U G133A U139C, for which the “polymerase ribozyme fitness (log ratio)” value is at most -4.2. As for A12U A20U G83U C129A, the “polymerase ribozyme fitness (log ratio)” value was at most -4.2.

Turning to A12G G25A A40C U53A C85G C95A A97U G140U, the “polymerase ribozyme fitness (log ratio)” value was at most -4.2. Take G11U G25C G71C C95G C103A C116G: the “polymerase ribozyme fitness (log ratio)” value was at most -4.2. Consider A12U C57G G65A, for which the “polymerase ribozyme fitness (log ratio)” value was -3.18. With A12C A16U C35U U53A C76G C96G, the “polymerase ribozyme fitness (log ratio)” value was at most -4.2. For U13C C69A C87G A97U A147U the value was at most -4.2; for U13A C14G A26G U56A U109C C123A U146A, at most -4.2. Turning to A12U C85A U139G, the “polymerase ribozyme fitness (log ratio)” value is -0.992. With A12U A26C A29G C38A G88C G92U U104C A115U, the “polymerase ribozyme fitness (log ratio)” value is at most -4.2. As for A12G A30C U31C G59A C69A U139G U144G, the “polymerase ribozyme fitness (log ratio)” value is at most -4.2. Turning to U13C U53C G94C A98C U148G, the “polymerase ribozyme fitness (log ratio)” value is at most -4.2. As for A12U G46C A97U A110G G128C, the “polymerase ribozyme fitness (log ratio)” value was at most -4.2. For A12U U77A C79U G86U A98C U101G A142G the value was at most -4.2.

Values taken from the RNAGym collection of RNA variant scans (doi:10.1073/pnas.2313332121).
